Publication PMC6794377
These are yes or no findings as the source states them, for the method shown. In cells and extracts the contact can be indirect. Some entries that bind do so weakly or less than the wild type. Tags and fused reporters may be left off the sequences shown.

Assays:
Test in all cases: co-IP; FLAG-tagged hThrRS-L or mutant expressed in HeLa cells; IP with anti-FLAG; endogenous partners detected by western blotting
[1] = molecular target: T1, hThrRS-L-T163D with a C-terminal FLAG tag (human) (UniProt A2RTX5)
T1 sequence: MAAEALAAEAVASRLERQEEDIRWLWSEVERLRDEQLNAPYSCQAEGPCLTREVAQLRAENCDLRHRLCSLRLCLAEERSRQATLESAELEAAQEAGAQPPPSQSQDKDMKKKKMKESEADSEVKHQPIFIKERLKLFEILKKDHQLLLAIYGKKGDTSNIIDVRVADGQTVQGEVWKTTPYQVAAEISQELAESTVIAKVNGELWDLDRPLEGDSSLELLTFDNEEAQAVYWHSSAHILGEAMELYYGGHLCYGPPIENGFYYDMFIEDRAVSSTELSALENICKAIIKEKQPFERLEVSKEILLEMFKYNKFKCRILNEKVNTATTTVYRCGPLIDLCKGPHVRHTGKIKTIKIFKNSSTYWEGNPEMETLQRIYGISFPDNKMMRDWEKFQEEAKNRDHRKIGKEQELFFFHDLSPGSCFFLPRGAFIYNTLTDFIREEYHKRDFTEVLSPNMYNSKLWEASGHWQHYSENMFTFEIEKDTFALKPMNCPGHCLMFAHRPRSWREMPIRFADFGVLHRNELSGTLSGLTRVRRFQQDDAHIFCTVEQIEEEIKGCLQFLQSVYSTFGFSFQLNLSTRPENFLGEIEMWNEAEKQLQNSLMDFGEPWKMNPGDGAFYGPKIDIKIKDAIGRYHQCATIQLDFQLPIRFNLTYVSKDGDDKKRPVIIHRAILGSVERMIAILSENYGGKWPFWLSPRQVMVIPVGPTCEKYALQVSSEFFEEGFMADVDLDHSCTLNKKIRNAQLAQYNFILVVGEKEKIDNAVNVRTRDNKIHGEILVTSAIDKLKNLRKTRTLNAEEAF

[2] = molecular target: T2, hThrRS-L-T449D with a C-terminal FLAG tag (human) (UniProt A2RTX5)
T2 sequence: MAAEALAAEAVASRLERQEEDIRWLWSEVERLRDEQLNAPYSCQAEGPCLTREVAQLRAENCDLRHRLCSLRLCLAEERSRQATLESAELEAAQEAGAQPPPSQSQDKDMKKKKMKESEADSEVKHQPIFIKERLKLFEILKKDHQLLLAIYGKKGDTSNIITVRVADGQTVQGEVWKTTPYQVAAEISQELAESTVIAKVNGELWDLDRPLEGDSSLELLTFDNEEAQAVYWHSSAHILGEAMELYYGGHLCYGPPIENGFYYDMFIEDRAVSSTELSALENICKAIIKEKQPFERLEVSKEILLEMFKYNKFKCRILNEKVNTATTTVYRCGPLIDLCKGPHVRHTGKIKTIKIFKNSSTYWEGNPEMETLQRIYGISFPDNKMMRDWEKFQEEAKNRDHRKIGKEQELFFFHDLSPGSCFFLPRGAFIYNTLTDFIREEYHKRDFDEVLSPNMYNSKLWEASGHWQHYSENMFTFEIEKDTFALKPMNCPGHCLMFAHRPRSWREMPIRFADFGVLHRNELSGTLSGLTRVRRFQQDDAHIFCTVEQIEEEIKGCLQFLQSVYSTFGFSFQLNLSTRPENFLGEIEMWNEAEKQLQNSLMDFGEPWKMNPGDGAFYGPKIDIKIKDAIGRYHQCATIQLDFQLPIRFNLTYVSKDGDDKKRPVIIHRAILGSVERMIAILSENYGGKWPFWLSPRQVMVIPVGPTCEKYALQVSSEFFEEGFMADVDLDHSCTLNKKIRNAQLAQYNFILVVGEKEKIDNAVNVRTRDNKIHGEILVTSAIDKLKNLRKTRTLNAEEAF

[3] = molecular target: T3, hThrRS-L-Y457D with a C-terminal FLAG tag (human) (UniProt A2RTX5)
T3 sequence: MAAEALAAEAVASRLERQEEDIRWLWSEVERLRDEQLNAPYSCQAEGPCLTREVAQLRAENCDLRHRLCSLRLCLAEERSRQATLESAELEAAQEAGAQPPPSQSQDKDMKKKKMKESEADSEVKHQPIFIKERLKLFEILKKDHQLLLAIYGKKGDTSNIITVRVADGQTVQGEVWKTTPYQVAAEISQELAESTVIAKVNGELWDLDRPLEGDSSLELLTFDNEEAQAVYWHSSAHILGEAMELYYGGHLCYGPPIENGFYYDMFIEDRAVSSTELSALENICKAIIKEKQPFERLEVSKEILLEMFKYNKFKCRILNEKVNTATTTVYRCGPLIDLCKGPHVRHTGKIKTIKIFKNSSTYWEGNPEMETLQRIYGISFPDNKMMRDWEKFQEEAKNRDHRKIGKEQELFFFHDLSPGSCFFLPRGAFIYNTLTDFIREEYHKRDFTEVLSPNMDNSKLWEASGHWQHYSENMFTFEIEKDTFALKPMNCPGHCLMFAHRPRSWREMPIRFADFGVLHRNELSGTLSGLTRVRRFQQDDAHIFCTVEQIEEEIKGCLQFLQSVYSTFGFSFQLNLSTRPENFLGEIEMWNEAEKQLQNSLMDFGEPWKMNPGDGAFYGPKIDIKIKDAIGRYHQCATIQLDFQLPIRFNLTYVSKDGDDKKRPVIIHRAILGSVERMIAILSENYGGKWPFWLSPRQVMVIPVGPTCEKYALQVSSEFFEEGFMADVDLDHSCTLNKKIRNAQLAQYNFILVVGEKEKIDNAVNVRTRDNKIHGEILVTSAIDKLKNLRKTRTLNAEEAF

Measured: binding

B1: native p43 (AIMP1), endogenous in human cells (protein, UniProt Q12904-2 1-336)
chain: MLPAVAVSEPVVLRFMIFCRLLAKMANNDAVLKRLEQKGAEADQIIEYLKQQVSLLKEKAILQATLREEKKLRVENAKLKKEIEELKQELIQAEIQNGVKQIPFPSGTPLHANSMVSENVIQSTAVTTVSSGTKEQIKGGTGDEKKAKEKIEKKGEKKEKKQQSIAGSADSKPIDVSRLDLRIGCIITARKHPDADSLYVEEVDVGEIAPRTVVSGLVNHVPLEQMQNRMVILLCNLKPAKMRGVLSQAMVMCASSPEKIEILAPPNGSVPGDRITFDAFPGEPDKELNPKKKIWEQIQPDLHTNDECVATYKGVPFEVKGKGVCRAQTMSNSGIK
binds: all assays above

B2: ArgRS, endogenous in human cells (enzyme, UniProt P54136 1-660)
chain: MDVLVSECSARLLQQEEEIKSLTAEIDRLKNCGCLGASPNLEQLQEENLKLKYRLNILRKSLQAERNKPTKNMINIISRLQEVFGHAIKAAYPDLENPPLLVTPSQQAKFGDYQCNSAMGISQMLKTKEQKVNPREIAENITKHLPDNECIEKVEIAGPGFINVHLRKDFVSEQLTSLLVNGVQLPALGENKKVIVDFSSPNIAKEMHVGHLRSTIIGESISRLFEFAGYDVLRLNHVGDWGTQFGMLIAHLQDKFPDYLTVSPPIGDLQVFYKESKKRFDTEEEFKKRAYQCVVLLQGKNPDITKAWKLICDVSRQELNKIYDALDVSLIERGESFYQDRMNDIVKEFEDRGFVQVDDGRKIVFVPGCSIPLTIVKSDGGYTYDTSDLAAIKQRLFEEKADMIIYVVDNGQSVHFQTIFAAAQMIGWYDPKVTRVFHAGFGVVLGEDKKKFKTRSGETVRLMDLLGEGLKRSMDKLKEKERDKVLTAEELNAAQTSVAYGCIKYADLSHNRLNDYIFSFDKMLDDRGNTAAYLLYAFTRIRSIARLANIDEEMLQKAARETKILLDHEKEWKLGRCILRFPEILQKILDDLFLHTLCDYIYELATAFTEFYDSCYCVEKDRQTGKILKVNMWRMLLCEAVAAVMAKGFDILGIKPVQRM
binds: all assays above
